# Results taken from PubChem BioAssay AID488969 (Vanderbilt High Throughput Screening Facility, 2010).
# The full ranking holds about 110,000 compounds; the median of “z-score” is about -0.1, and the highest 2% start at about 2. The list shows a part of the results. Activity calls are given as the source filed them.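 Rule for the calls: active = z-score in the third read window above 3 or below -3; inactive = the rest.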
# Target: Metabotropic glutamate receptor 8 (Rattus norvegicus) (UniProt P70579)
# Assay: rat mGluR8 modulators via GIRK flux, primary screen, cell-based, thallium flux, HTS (AID 488969)
# Conditions: HEK293 rat mGluR8, GIRK (G protein-gated inwardly rectifying potassium channel) thallium flux, FluoZin2; at 10 µM; stronger effect = higher value; submaximal glutamate (EC20) added with thallium
# UniProt P70579, sequence (P70579 whole entry, looked up): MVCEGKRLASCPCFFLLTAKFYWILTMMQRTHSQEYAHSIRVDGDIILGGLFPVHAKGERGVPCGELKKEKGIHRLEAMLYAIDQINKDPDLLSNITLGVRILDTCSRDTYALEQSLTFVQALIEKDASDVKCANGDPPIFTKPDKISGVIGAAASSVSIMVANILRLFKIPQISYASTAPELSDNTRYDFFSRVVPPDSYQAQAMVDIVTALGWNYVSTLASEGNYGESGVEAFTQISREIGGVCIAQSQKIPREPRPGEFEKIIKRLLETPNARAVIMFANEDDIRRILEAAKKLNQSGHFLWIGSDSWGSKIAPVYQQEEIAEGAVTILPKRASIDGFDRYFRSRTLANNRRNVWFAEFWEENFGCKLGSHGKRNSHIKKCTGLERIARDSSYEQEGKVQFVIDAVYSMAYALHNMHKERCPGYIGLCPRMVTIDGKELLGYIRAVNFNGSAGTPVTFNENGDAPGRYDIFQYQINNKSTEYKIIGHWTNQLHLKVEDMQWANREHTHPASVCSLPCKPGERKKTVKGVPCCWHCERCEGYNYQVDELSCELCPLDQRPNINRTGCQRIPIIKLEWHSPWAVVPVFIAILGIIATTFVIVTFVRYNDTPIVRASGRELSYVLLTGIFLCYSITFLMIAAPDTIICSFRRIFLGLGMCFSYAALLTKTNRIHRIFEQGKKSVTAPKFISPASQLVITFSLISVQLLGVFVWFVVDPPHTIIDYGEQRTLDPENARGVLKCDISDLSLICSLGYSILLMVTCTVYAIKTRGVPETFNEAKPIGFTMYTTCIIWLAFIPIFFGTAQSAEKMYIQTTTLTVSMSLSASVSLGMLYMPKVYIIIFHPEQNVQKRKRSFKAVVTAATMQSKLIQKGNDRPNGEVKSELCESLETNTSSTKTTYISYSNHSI
row,SMILES,z-score
1,CC1=C(C(=O)Nc2cccc(C)n2)C(c2ccc3c(c2)OCO3)C2=C(CC(c3ccco3)CC2=O)N1 (stereo unspecified),-0.394
2,Cc1c(C2=CCN(S(=O)(=O)c3ccc(Cl)cc3)CC2)c2ccccc2n1C,-0.123
3,CCOc1cc(/C=N/NC(=O)C(=O)NCCCOC(C)C)cc(Br)c1O,-0.0647
4,Cc1c(-c2ccccc2)c(P(=O)(N2CCOCC2)N2CCOCC2)c2ccccn12,-0.299
5,O=C(c1ccc2c3c(cccc13)CC2)N1CCN(c2ncccn2)CC1,-0.454
6,Cc1c(Br)c([N+](=O)[O-])nn1C(C)C(=O)N1CCCc2ccccc21 (stereo unspecified),-0.221
7,CCOc1ccc(C2/C(=C(\O)c3c(C)[nH]c(C(=O)OC)c3C)C(=O)C(=O)N2CCN(C)C)cc1 (stereo unspecified),0.209
8,Cc1cccc(-n2ncc(C#N)c2N)c1,1.01
9,CC(C)(C)c1ccc(OCc2nc(-c3ccccn3)no2)c(Br)c1,-0.157
10,CC1CCCCC1NS(=O)(=O)c1ccc(S(=O)(=O)N2CCCC2)cc1 (stereo unspecified),-0.536
11,CCCCN(CC)CCNC(=O)Cn1cnc2sc(C)c(S(=O)(=O)N3CCOCC3)c2c1=O,-0.183
12,CCc1c(C(=O)NNC(=S)NCc2ccccc2)csc1C,0.611
13,O=C(NCC(c1cccs1)N1CCOCC1)c1ccccc1NS(=O)(=O)c1ccc(Cl)cc1 (stereo unspecified),-0.359
14,CCCn1c(SCC(=O)c2cc(C)n(-c3ccc4c(c3)OCO4)c2C)n[nH]c1=O,-0.175
15,CC(NC(=O)c1ccccc1)C(=O)NC1=NCCS1 (stereo unspecified),0.0634
16,CS(=O)(=O)N(CCc1ccccc1)CC(=O)N1CCN(c2ccccc2)CC1,-0.157
17,O=C(C1CCCN(S(=O)(=O)Cc2ccccc2)C1)N1CCCCC1 (stereo unspecified),-0.0708
18,Cc1ccc(S(=O)(=O)N2CCN=C2c2ccccc2)cc1C,0.196
19,CSc1ncccc1C(=O)OCC(=O)NC1CCS(=O)(=O)C1 (stereo unspecified),-0.0709
20,O=C(Cc1noc2ccccc12)Nc1ccc2ccccc2c1,-0.24
21,COc1ccc(Cl)cc1NC(=O)NC(C)c1ccncc1 (stereo unspecified),-0.275
22,O=C(CCc1nc(-c2ccccc2F)no1)Nc1ccc(Oc2ccccc2)cc1,0.772
23,Cc1ccc2nc3sc(C(=O)Nc4c(C)[nH]c(=O)[nH]c4=O)c(N)c3cc2c1,-0.158
24,Cc1cc(NC(=O)c2ccc3c(c2)OCO3)ccc1NC(=O)c1ccco1,-0.13

row,SMILES,z-score
1,Cc1ccc(-c2csc3ncnc(Cl)c23)cc1,0.241
2,CCNC(=S)N(Cc1cc2cc(C)cc(C)c2[nH]c1=O)C1CCCC1,-0.615
3,Cc1ccc(C(=O)NCCN(C)C)c(C)c1,0.0179
4,CN1C2CCC1CC(OC(=O)c1c[nH]c3ccccc13)C2 (stereo unspecified),1.34
5,Cc1nn(Cc2ccccc2Cl)c(C)c1NC(=O)NC12CC3CC(CC(C3)C1)C2,-0.454
6,Cc1cccc(-n2ncc(C#N)c2-n2cccc2)c1,-0.397
7,O=C(Nc1ccc(N2CCCC2=O)cc1)c1cccc(F)c1,-0.00633
8,O=C(Nc1ccc(Cl)c(Cl)c1)Nc1nc(-c2ccccc2)cs1,0.17
9,CCN(CC)S(=O)(=O)c1ccc(NS(=O)(=O)CC23CCC(CC2=O)C3(C)C)cc1 (stereo unspecified),0.106
10,O=C(Nc1cccc(Cl)c1Cl)c1ccncc1,-0.155
11,N#Cc1nc(COc2ccccc2F)oc1NCCc1ccccc1,-0.289
12,COC(=O)Cc1cc(=O)[nH]c(/N=C(\N)Nc2ccccc2)n1,-0.341
13,O=C(c1ccc(Br)s1)N1CCCC1,-0.0657
14,COc1cccc(-c2nnc(SCC(=O)Nc3ccc(OC)c(OC)c3)n2N)c1,-0.349
15,COc1ccc(-n2c(C)cc(C(=O)COc3ccc(C)nc3[N+](=O)[O-])c2C)cc1,-0.715
16,Cc1ccc(C(=O)CSc2nnc(-c3cccnc3)n2N)cc1,-0.308
17,COc1cccc(/C=N/NC(=O)C(=O)N2CCCC2)c1,-0.0627
18,Cc1ccc(N2C(=O)C(Cl)=C(N3CCN(C)CC3)C2=O)c(C)c1,-0.189
19,CCS(=O)(=O)Nc1ccc(-c2nnc(SCC(=O)c3ccc(NC(C)=O)c(OC)c3)o2)cc1,active: 4.64
20,Cc1noc(/C=C/c2ccco2)c1S(=O)(=O)N1CCC(C(=O)N2CCc3ccccc32)CC1,-0.389
21,COc1cc(OC)cc(-n2nnnc2SCC(=O)N2CCCC2)c1,0.154
22,Cn1ccnc1SC(=O)N1c2ccccc2Sc2ccccc21,-0.487
23,CCOC(=O)c1cn(Cc2cccc(C)c2)nn1,-0.25
24,CC(=O)NNc1cccc(Cl)n1,0.709

row,SMILES,z-score
1,C/C(=N/NC(=O)OC(C)(C)C)c1ccco1,-0.124
2,O=C(CNC(=O)COc1ccccc1)NCc1ccccc1F,0.0382
3,CCOC(=O)Cn1c(=O)oc2cc(S(=O)(=O)NCc3ccccn3)ccc21,-0.108
4,Cc1ccc(CNC(=O)COC(=O)c2cnccn2)cc1,0.214
5,COc1ccc(/C=N/n2c(-c3ccco3)nc3ccccc3c2=O)cc1,-1.17
6,CC(C)(C)c1ccccc1NC(=O)Cn1c(=O)cnc2ccccc21,0.678
7,Cc1cc2c(c(=O)n1CC1CCCO1)C(c1ccc3c(c1)OCO3)C(C#N)=C(N)O2 (stereo unspecified),-0.638
8,COc1ccc(Nc2nccc(OC)c2C#N)cc1,-0.24
9,CCNc1nc(N)nc(-c2cc(Cl)ccc2OC)n1,-0.253
10,O=C(CSc1ncn[nH]1)Nc1nc(-c2ccccc2)cs1,0.0129
11,CCCc1cc(C(N)=O)c(NC(=O)c2ccoc2C)s1,-0.638
12,OCc1cc(CO)c(O)c(CCc2ccccc2)n1,0.171
13,CCCCNC(=O)CSc1nc2ccccc2c(=O)n1Cc1ccc2c(c1)OCO2,0.908
14,CC(C)NCC(O)Cn1c2c(c3ccccc31)CCc1c-2cnn1-c1ccccc1 (stereo unspecified),-0.477
15,Cc1ccc(-c2nc(C3CCCN(S(=O)(=O)c4ccc(C(C)(C)C)cc4)C3)no2)cc1 (stereo unspecified),-0.0931
16,CC(=O)Nc1ccc(S(=O)(=O)N(C)CC(=O)NC2=NCCS2)cc1,0.262
17,O=C(CCn1nnc2ccccc2c1=O)N[C@@H](Cc1ccccc1)C(=O)O,1.64
18,CCOC(=O)N1CCC(NC(=O)c2cc3c(-c4ccc(Cl)cc4)nn(C)c3s2)CC1,-1.79
19,O=C(CSc1nccn1-c1ccc(Cl)cc1)Nc1ccc2c(c1)OCO2,-0.00407
20,Cc1cc2c(=O)[nH]cnc2s1,-0.0786
21,Clc1ccccc1CSC1=NCCCN1,0.573
22,CSc1c(CC(=O)Nc2ccc(F)cc2)n(Cc2ccccc2)c2ccccc12,0.035
23,O=C(O/N=C\c1ccc(N2CCOCC2)c([N+](=O)[O-])c1)c1ccc(F)cc1,-0.494
